# Several values for one entry are separate records, joined by “and”; a condition that tells them apart may be missing. Identical values can stand only once. Counter-ions that a name gives are not always drawn. The campaign covered roughly 5,800 compounds. About 620 (11%) showed activity.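 The calls were made as follows: active = score above a cut-off or among the top three wells of a plate; in these data no inactive exceeds 0.85.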 Only a part is listed here, and it is no random draw.
# Tested on: primary human hepatic stellate cells (donor 1)
# Experiment: scaled lipid accumulation score (0 = DMSO-like, 1 = nortriptyline-like); higher = stronger HSC inactivation (lipid re-accumulation), active = hit call of the paper
# Details: 48 h
# [1] = library stock concentration: 3.33 mM
# [2] = library stock concentration: 10 mM
# [3] = library stock concentration: 1 mM
# [4] = library stock concentration: 6.1 mM
# [5] = library stock concentration: 2 mM
# [6] = library stock concentration: 4.9 mM
compound,measurement,setting,value
C=CC[N+]1([C@H]2C[C@H]3[C@@H]4CC[C@H]5C[C@H](O)[C@@H](N6CCOCC6)C[C@]5(C)[C@H]4CC[C@]3(C)[C@H]2OC(C)=O)CCCC1 [Rocuronium Bromide],scaled lipid accumulation score,[1],inactive: ≤ 0
same,scaled lipid accumulation score,[2],inactive: ≤ 0
CCCCCC=CCC=CCCCCCCCC(=O)OC(COC(=O)CCCCCCCCCCCCCCC)COP(=O)(O)OCCN (stereo not drawn) [1-Palmitoyl-2-linoleoyl PE],scaled lipid accumulation score,[3],inactive: 0.006
Cc1ccc(C(=O)Cn2c3c(sc2=N)CCCC3)cc1 [Pifithrin-.alpha.],scaled lipid accumulation score,[3],inactive: ≤ 0
CC(C)(C)NC(=O)[C@H]1CC[C@H]2[C@@H]3CC[C@H]4NC(=O)C=C[C@]4(C)[C@H]3CC[C@]12C [Finasteride],scaled lipid accumulation score,,inactive: ≤ 0
same,scaled lipid accumulation score,[1],inactive: 0.033
same,scaled lipid accumulation score,library stock concentration: 5.4 mM,inactive: ≤ 0 and inactive: 0.005
same,scaled lipid accumulation score,[2],inactive: ≤ 0
CC(C)(C)NC(=O)[C@H]1CC[C@H]2[C@@H]3CC[C@H]4NC(=O)C=C[C@]4(C)[C@H]3CC[C@]12C,scaled lipid accumulation score,[2],inactive: ≤ 0
Cc1ccc(C(=O)N(CCCN)[C@@H](c2oc3cc(Cl)ccc3c(=O)c2Cc2ccccc2)C(C)C)cc1,scaled lipid accumulation score,[1],inactive: 0.419
same,scaled lipid accumulation score,[2],inactive: 0.328
Nc1nc(N)c2nc(-c3ccccc3)c(N)nc2n1 [Triamterene],scaled lipid accumulation score,,inactive: ≤ 0
same,scaled lipid accumulation score,[1],inactive: ≤ 0
same,scaled lipid accumulation score,library stock concentration: 7.9 mM,inactive: ≤ 0
same,scaled lipid accumulation score,[2],inactive: ≤ -0.001 and inactive: ≤ 0 and inactive: 0.055
C=C1CC[C@H](O)C/C1=C/C=C1\CCC[C@]2(C)[C@@H]([C@H](C)/C=C/[C@H](C)C(C)C)CC[C@@H]12 [Calciferol],scaled lipid accumulation score,,inactive: 0.214
C=C1CC[C@H](O)C/C1=C/C=C1\CCC[C@]2(C)[C@@H]([C@H](C)/C=C/[C@H](C)C(C)C)CC[C@@H]12 [Vitamin D2],scaled lipid accumulation score,[1],inactive: ≤ 0
same,scaled lipid accumulation score,[2],inactive: 0.681
C=C1CC[C@H](O)C/C1=C/C=C1\CCC[C@]2(C)[C@@H]([C@H](C)/C=C/[C@H](C)C(C)C)CC[C@@H]12 [Ergocalciferol],scaled lipid accumulation score,library stock concentration: 5 mM,inactive: 0.006
same,scaled lipid accumulation score,[2],inactive: ≤ 0
CCCCOc1ccc(C(=O)CCN2CCCCC2)cc1 [Dyclonine hydrochloride],scaled lipid accumulation score,,inactive: 0.064
same,scaled lipid accumulation score,[4],inactive: 0.028
same,scaled lipid accumulation score,[2],inactive: ≤ 0
CCCCOc1ccc(C(=O)CCN2CCCCC2)cc1 [Dyclonine HCl],scaled lipid accumulation score,[1],inactive: ≤ 0
same,scaled lipid accumulation score,[2],inactive: ≤ 0
"CCCCCC(=O)CC[C@H]1[C@H](O)CC(=O)[C@@H]1CCCCCCC(=O)O [13,14-dihydro-15-keto Prostaglandin E1]",scaled lipid accumulation score,[3],inactive: ≤ 0
COc1ccc(-c2cc3nccn3c(Nc3ncccc3C(N)=O)n2)cc1OC,scaled lipid accumulation score,library stock concentration: 80 uM,inactive: 0.088
same,scaled lipid accumulation score,library stock concentration: 400 uM,inactive: ≤ -0.009
same,scaled lipid accumulation score,[5],inactive: 0.133
same,scaled lipid accumulation score,[2],inactive: 0.349
CC[C@H](C)C(=O)O[C@H]1C[C@H](O)C=C2C=C[C@H](C)[C@H](CC[C@@H]3C[C@@H](O)CC(=O)O3)[C@H]21 [Pravastatin lactone],scaled lipid accumulation score,[6],inactive: ≤ 0
COc1ccc(CCC(=O)Nc2nc3ccc(Cl)cc3s2)cc1OC,scaled lipid accumulation score,[1],inactive: ≤ -0.009
same,scaled lipid accumulation score,[2],inactive: 0.079
Cc1cc2c(C(=O)NCC(C)c3ccccc3)c(O)c(O)cc2c(O)c1-c1c(C)cc2c(C(=O)NCC(C)c3ccccc3)c(O)c(O)cc2c1O (stereo not drawn) [Sabutoclax],scaled lipid accumulation score,[1],inactive: 0.768
same,scaled lipid accumulation score,[2],inactive: 0.582
C=C1C(=O)O[C@H]2[C@H]1CC/C(C)=C/CC[C@@]1(C)O[C@@H]21 [(-)-Parthenolide],scaled lipid accumulation score,[1],inactive: 0.099
same,scaled lipid accumulation score,[2],inactive: 0.534
C=C1C(=O)O[C@H]2[C@H]1CC/C(C)=C/CC[C@@]1(C)O[C@@H]21 [Parthenolide],scaled lipid accumulation score,,inactive: 0.539
same,scaled lipid accumulation score,[2],inactive: 0.317 and inactive: 0.269
same,scaled lipid accumulation score,library stock concentration: 20.1 mM,inactive: 0.417
O=C(O)COc1ccc(C(=O)c2cccs2)c(Cl)c1Cl [Tienilic Acid],scaled lipid accumulation score,[3],inactive: ≤ 0
Cn1nnc2c(C(N)=O)ncn2c1=O [Temozolomide],scaled lipid accumulation score,[1],inactive: ≤ 0
same,scaled lipid accumulation score,[2],inactive: ≤ 0 and inactive: 0.013
Cn1nnc2c(C(N)=O)ncn2c1=O,scaled lipid accumulation score,[2],inactive: ≤ 0
CC(C)[C@@H]1NC(=O)[C@H](Cc2ccccc2)NC(=O)[C@@H](CC(=O)O)NC(=O)CNC(=O)[C@H](CCCN=C(N)N)NC1=O [Cyclo [Arg-Gly-Asp-D-Phe-Val]],scaled lipid accumulation score,library stock concentration: 8.7 mM,inactive: ≤ -0.003
"CN1[C@@H]2CC[C@H]1C[C@@H](OC(=O)C(O)c1ccccc1)C2 (mixture of isomers) [Homatropine hydrobromide (R,S)]",scaled lipid accumulation score,,inactive: 0.043
CN1[C@@H]2CC[C@H]1C[C@@H](OC(=O)C(O)c1ccccc1)C2 (mixture of isomers) [DL-Homatropine hydrobromide],scaled lipid accumulation score,[2],inactive: 0.242
CC(C)(C)CC(C)(C)c1ccc(OCCOCC[N+](C)(C)Cc2ccccc2)cc1 [Benzethonium chloride],scaled lipid accumulation score,,inactive: 0.399
same,scaled lipid accumulation score,library stock concentration: 4.5 mM,inactive: ≤ -0.001
same,scaled lipid accumulation score,[2],inactive: 0.191
CC(C)(C)CC(C)(C)c1ccc(OCCOCC[N+](C)(C)Cc2ccccc2)cc1 [Benzethonium Chloride],scaled lipid accumulation score,[1],inactive: ≤ 0
same,scaled lipid accumulation score,[2],inactive: 0.541
COc1ccc(CCC(=O)c2c(O)cc(O[C@@H]3O[C@H](CO)[C@@H](O)[C@H](O)[C@H]3O[C@@H]3O[C@@H](C)[C@H](O)[C@@H](O)[C@H]3O)cc2O)cc1O [Neohesperidin dihydrochalcone],scaled lipid accumulation score,[2],inactive: ≤ 0
NS(=O)(=O)c1nn2cc(-c3ccccc3)nc2s1,scaled lipid accumulation score,[2],inactive: 0.481
Cl.OCCN1CCN(CC/C=C2/c3ccccc3Sc3ccc(Cl)cc32)CC1 [Zuclopenthixol hydrochloride],scaled lipid accumulation score,,active: 0.995
Nc1ccc(/N=N/c2ccccc2)c(N)n1 [Phenazopyridine hydrochloride],scaled lipid accumulation score,,inactive: ≤ 0
same,scaled lipid accumulation score,library stock concentration: 8 mM,inactive: ≤ -0.001
same,scaled lipid accumulation score,[2],inactive: ≤ 0
Nc1ccc(/N=N/c2ccccc2)c(N)n1 [Phenazopyridine HCl],scaled lipid accumulation score,[1],inactive: 0.027
same,scaled lipid accumulation score,[2],inactive: 0.095
C[C@H](N[C@@H](CCc1ccccc1)C(=O)O)C(=O)N1Cc2ccccc2C[C@H]1C(=O)O,scaled lipid accumulation score,[2],inactive: ≤ 0
CC1=CC(=O)C2=C(C)CC[C@@H]3[C@H](OC(=O)[C@H]3C)[C@@H]12 [Leucomisine],scaled lipid accumulation score,,inactive: ≤ 0
CN(C)CCOC(=O)C(c1ccccc1)C1(O)CCCC1 (stereo not drawn) [Cyclopentolate hydrochloride],scaled lipid accumulation score,,inactive: ≤ 0
same,scaled lipid accumulation score,[4],inactive: ≤ -0.001
same,scaled lipid accumulation score,[2],inactive: 0.177
CCC(=O)O[C@]1(C(=O)SCF)[C@H](C)C[C@H]2[C@@H]3C[C@H](F)C4=CC(=O)C=C[C@]4(C)[C@@]3(F)[C@@H](O)C[C@@]21C,scaled lipid accumulation score,[2],inactive: 0.435
CCC(=O)O[C@]1(C(=O)SCF)[C@H](C)C[C@H]2[C@@H]3C[C@H](F)C4=CC(=O)C=C[C@]4(C)[C@@]3(F)[C@@H](O)C[C@@]21C [Fluticasone propionate],scaled lipid accumulation score,,inactive: ≤ 0
same,scaled lipid accumulation score,[1],inactive: 0.758
same,scaled lipid accumulation score,[2],inactive: 0.745 and inactive: 0.513
CCOC(=O)c1ccnc(C(=O)OCC)c1,scaled lipid accumulation score,[3],inactive: ≤ 0
C[N+]1(C)CCCC1C(=O)O (stereo not drawn) [Stachydrine hydrochloride],scaled lipid accumulation score,,inactive: 0.046
Cc1c(S(=O)(=O)O)oc2c1C(=O)C(=O)c1c-2ccc2c1CCCC2(C)C [Tanshinone iia sulfonate sodium],scaled lipid accumulation score,[2],inactive: ≤ 0
CN1CCN(CCCN2c3ccccc3Sc3ccc(C(F)(F)F)cc32)CC1.Cl.Cl [Trifluoperazine dihydrochloride],scaled lipid accumulation score,[2],active: 0.914
CC(C)NC[C@H](O)COc1cccc2ccccc12.Cl,scaled lipid accumulation score,library stock concentration: 16.9 mM,active: 1.02
NCCCS(=O)(=O)O [3-Amino-1-propanesulfonic acid sodium],scaled lipid accumulation score,[2],inactive: 0.205
NCCCS(=O)(=O)O [3-aminopropanesulphonic acid],scaled lipid accumulation score,[2],inactive: ≤ 0
Nc1nc(/C(=C/CC(=O)O)C(=O)N[C@@H]2C(=O)N3C(C(=O)O)=CCS[C@H]23)cs1 [Ceftibuten],scaled lipid accumulation score,[6],inactive: ≤ 0
same,scaled lipid accumulation score,[2],inactive: ≤ -0.027
CC(C)[C@H](O)C(=O)N[C@@H](C)C(=O)N[C@@H]1C(=O)N(C)CCc2ccccc21,scaled lipid accumulation score,[1],inactive: 0.014
same,scaled lipid accumulation score,[2],inactive: 0.069
O=C(NCCCCCCNC(=O)ON=C1CCCCC1)ON=C1CCCCC1,scaled lipid accumulation score,[2],inactive: 0.062
same,scaled lipid accumulation score,library stock concentration: 12.7 mM,inactive: 0.056
C=CCN1CCc2cc(O)c(O)cc2C(c2ccccc2)C1 (stereo not drawn),scaled lipid accumulation score,[2],inactive: ≤ 0 and inactive: ≤ -0.006
CNCc1ccc(C)c(NC(=O)c2ccc(Nc3nc(-c4ccccc4)c4ccccc4n3)cc2)c1,scaled lipid accumulation score,[2],inactive: 0.17
Nc1ccc(C(=O)O)c(O)c1 [Aminosalicylate sodium],scaled lipid accumulation score,[2],inactive: ≤ 0
Nc1ccc(C(=O)O)c(O)c1 [Sodium 4-Aminosalicylate],scaled lipid accumulation score,[1],inactive: ≤ 0
same,scaled lipid accumulation score,[2],inactive: ≤ -0.001
Nc1ccc(C(=O)O)c(O)c1 [4-aminosalicylic acid],scaled lipid accumulation score,library stock concentration: 13.1 mM,inactive: ≤ 0
O=C1Nc2ccc(Cl)cc2[C@@](C#CC2CC2)(C(F)(F)F)O1 [Efavirenz],scaled lipid accumulation score,library stock concentration: 6.3 mM,inactive: ≤ 0
CC(C)NCC(O)COc1cccc2ccccc12.Cl (stereo not drawn),scaled lipid accumulation score,[2],active: 0.882
CC(C)c1cc(-c2n[nH]c(=O)n2-c2ccc3c(ccn3C)c2)c(O)cc1O [Ganetespib],scaled lipid accumulation score,[5],active: 0.915
same,scaled lipid accumulation score,[2],active: 0.885
CC(=O)Nc1ccc(S(=O)(=O)c2ccc(NC(C)=O)cc2)cc1 [Acedapsone],scaled lipid accumulation score,library stock concentration: 6 mM,inactive: ≤ 0
O=C(O)c1ccccc1Nc1cccc(C(F)(F)F)c1 [Flufenamic acid],scaled lipid accumulation score,,inactive: ≤ 0
same,scaled lipid accumulation score,[1],inactive: ≤ 0
same,scaled lipid accumulation score,library stock concentration: 7.1 mM,inactive: ≤ -0.004 and inactive: ≤ 0
same,scaled lipid accumulation score,[2],inactive: ≤ -0.001 and inactive: 0.118
same,scaled lipid accumulation score,library stock concentration: 17.8 mM,inactive: ≤ -0.021

# Reference: the supplement of paper PMC9135407
